{"source": "the RNAGym collection of RNA variant scans (doi:10.1073/pnas.2313332121)", "parents": {"B1": {"name": "TPR 5TU (parent)", "chain": "GGAUCUUCUCGAUCUAACAAAAAAGACAAAUCUGCCACAAAGCUUGAGAGCAUCUUCGGAUGCAGAGGCGGCAGCCUUCGGUGGCGCGAUAGCGCCAACGUUCUCAACUAUGACACGCAAAACGCGUGCUCCGUUGAAUGGAGUUUAUCAUG"}}, "note": "Variants at the background level are over-represented here."}
{"variants_of": "B1", "assay": "polymerase ribozyme fitness, log enrichment relative to wild type (log ratio); higher = more active; in vitro selection for triplet polymerase activity", "procedure,_shortened": "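For each subunit of a heterodimeric triplet polymerase ribozyme, a mutant library was built by PCR and transcribed, then taken through a single in vitro selection round in triplicate. Selection involved annealing to a biotinylated primer, the partner subunit and triplets, incubation frozen at −7 °C, gel excision of extended constructs, capture on streptavidin beads and RT-PCR. Genotypes were retained after Illumina sequencing of inputs and outputs only with ≥10 input reads and ≥1 read in each output. Fitness is defined as the logarithm of a genotype's enrichment relative to wild-type enrichment, using inverse-variance-weighted averages across replicates, with the logarithm taken to base 2.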"}
{"variant": "C8A A16G A41C G92U A138C U145A G152A", "polymerase ribozyme fitness (log ratio)": "≤ -4.2"}
{"variant": "U7A G11U A39U C63G C85A A110C", "polymerase ribozyme fitness (log ratio)": "≤ -4.2"}
{"variant": "U7A A21C C54A G86C C114G A120U", "polymerase ribozyme fitness (log ratio)": "≤ -4.2"}
{"variant": "C8A C54A", "polymerase ribozyme fitness (log ratio)": "≤ -4.2"}
{"variant": "U6G C69U G84A A106C", "polymerase ribozyme fitness (log ratio)": -2.47}
{"variant": "U6G U33G C57G G83A U127A", "polymerase ribozyme fitness (log ratio)": "≤ -4.2"}
{"variant": "U7G U9G A22U A28G A49C C96U A122U", "polymerase ribozyme fitness (log ratio)": "≤ -4.2"}
{"variant": "U7G A29U G83C C103U U130G", "polymerase ribozyme fitness (log ratio)": "≤ -4.2"}
{"variant": "U7G C8U G59U G68U A91U A150U", "polymerase ribozyme fitness (log ratio)": "≤ -4.2"}
{"variant": "U7G A17C A21C A37C U55C A73C C99U A106C", "polymerase ribozyme fitness (log ratio)": "≤ -4.2"}
{"variant": "U6G C51U G84A U146G", "polymerase ribozyme fitness (log ratio)": -1.28}
{"variant": "C8A C14U C54A C99A", "polymerase ribozyme fitness (log ratio)": "≤ -4.2"}
{"variant": "C8U C43U G48C U55A G92C", "polymerase ribozyme fitness (log ratio)": "≤ -4.2"}
{"variant": "C8A A26C G83A A89U A98U", "polymerase ribozyme fitness (log ratio)": "≤ -4.2"}
{"variant": "U6G C8G A47C G59U A91C C96G C132G G133A", "polymerase ribozyme fitness (log ratio)": "≤ -4.2"}
{"variant": "C8A A20U C43G C72G G88A A89C C118U", "polymerase ribozyme fitness (log ratio)": "≤ -4.2"}
{"variant": "U7G C43U A64U C76A G84A C125G", "polymerase ribozyme fitness (log ratio)": "≤ -4.2"}
{"variant": "C8G A49C U82C C87G", "polymerase ribozyme fitness (log ratio)": "≤ -4.2"}
{"variant": "U7A A20C C93G C116G U135G", "polymerase ribozyme fitness (log ratio)": "≤ -4.2"}
{"variant": "C8U A23C A37U G71C C95U U135A", "polymerase ribozyme fitness (log ratio)": "≤ -4.2"}
{"variant": "U7A G58C C93U G100C C125A", "polymerase ribozyme fitness (log ratio)": "≤ -4.2"}
{"variant": "C8A G58A G62C C85U U109C G124A", "polymerase ribozyme fitness (log ratio)": "≤ -4.2"}
{"variant": "U7A A26G U31C G50U A73C G86A U104G", "polymerase ribozyme fitness (log ratio)": "≤ -4.2"}
{"variant": "U6G G83A", "polymerase ribozyme fitness (log ratio)": -0.0531}
{"variant": "U7A C32G A49U U77A", "polymerase ribozyme fitness (log ratio)": "≤ -4.2"}
{"variant": "C8U G46C U55A A60U C95U A98U G143A C149G", "polymerase ribozyme fitness (log ratio)": "≤ -4.2"}
{"variant": "C8G C38U A47U C79A G83A G133U", "polymerase ribozyme fitness (log ratio)": "≤ -4.2"}
{"variant": "U6G A40U U56A C93U A106C", "polymerase ribozyme fitness (log ratio)": -1.92}
{"variant": "U6G C8U G94A C105G C118A G140A", "polymerase ribozyme fitness (log ratio)": "≤ -4.2"}
{"variant": "U7A A20U U31G C116U", "polymerase ribozyme fitness (log ratio)": -3.58}
{"variant": "C8A C14A G48C U82A U104A G143C A150G", "polymerase ribozyme fitness (log ratio)": "≤ -4.2"}
{"variant": "C8G A30G C51U G84A G88A C103G A106U C116A U134C", "polymerase ribozyme fitness (log ratio)": "≤ -4.2"}
{"variant": "C8A C27G A29G A37C U53A G80A G86U A91C G92A C105G A137C", "polymerase ribozyme fitness (log ratio)": "≤ -4.2"}
{"variant": "U7C C54U G92A A106G C116G U139A", "polymerase ribozyme fitness (log ratio)": "≤ -4.2"}
{"variant": "C8A C54U G92U C95U C105U C118G U139G", "polymerase ribozyme fitness (log ratio)": "≤ -4.2"}
{"variant": "U6G C10U U15C A16G A21C G34U C54U C93A", "polymerase ribozyme fitness (log ratio)": "≤ -4.2"}
{"variant": "U7G A19U A26G A28C C32U U45G U55G U78A G128A G136U U145A", "polymerase ribozyme fitness (log ratio)": "≤ -4.2"}
{"variant": "U7G A19G", "polymerase ribozyme fitness (log ratio)": -2.47}
{"variant": "U7G A19U A52U U56A A91G C108A", "polymerase ribozyme fitness (log ratio)": "≤ -4.2"}
{"variant": "U6G G65U G71C G94A C103G A122G", "polymerase ribozyme fitness (log ratio)": "≤ -4.2"}
{"variant": "U7C C27A C69G G86A G100C", "polymerase ribozyme fitness (log ratio)": "≤ -4.2"}
{"variant": "C8A A22G A52C C96A U109C U145A", "polymerase ribozyme fitness (log ratio)": "≤ -4.2"}
{"variant": "C8A C85G A121U", "polymerase ribozyme fitness (log ratio)": "≤ -4.2"}
{"variant": "U6G C27U A37G C79U G80C C85U U101G A107U A119U G126U", "polymerase ribozyme fitness (log ratio)": "≤ -4.2"}
{"variant": "C8A A21G A37C C57A C93G U104G G117C A142G U146A A147C", "polymerase ribozyme fitness (log ratio)": "≤ -4.2"}
{"variant": "C8U C87G", "polymerase ribozyme fitness (log ratio)": "≤ -4.2"}
{"variant": "U7C A21U A49C A52C A64G C93U A120U A137G", "polymerase ribozyme fitness (log ratio)": "≤ -4.2"}
{"variant": "C8U A24U C38G U56A U78C C87A U148C G152U", "polymerase ribozyme fitness (log ratio)": "≤ -4.2"}
{"variant": "U6G C14A C54A G80C A138G", "polymerase ribozyme fitness (log ratio)": "≤ -4.2"}
{"variant": "C8U A12G C35A U44A", "polymerase ribozyme fitness (log ratio)": "≤ -4.2"}
{"variant": "U7A C18U A91U A97U U102C U144G", "polymerase ribozyme fitness (log ratio)": "≤ -4.2"}
{"variant": "U7G A23G U53A C99G C116A C125G A137C", "polymerase ribozyme fitness (log ratio)": "≤ -4.2"}
{"variant": "C8U A47G U90G G133C G143A", "polymerase ribozyme fitness (log ratio)": "≤ -4.2"}
{"variant": "C8A A17G A22U A28C A66C C132G", "polymerase ribozyme fitness (log ratio)": "≤ -4.2"}
{"variant": "U6G A37C C105U A107G G141C", "polymerase ribozyme fitness (log ratio)": "≤ -4.2"}
{"variant": "U7G G48C G84A", "polymerase ribozyme fitness (log ratio)": -3.94}
{"variant": "U7C A12G C14U A22C G67A C85A U109A C118A A142C", "polymerase ribozyme fitness (log ratio)": "≤ -4.2"}
{"variant": "U6G A29U A73G U77C C95U A107U", "polymerase ribozyme fitness (log ratio)": "≤ -4.2"}
{"variant": "U7G U44A U55A C57U G83A", "polymerase ribozyme fitness (log ratio)": "≤ -4.2"}
{"variant": "C8G C43U G88C C93A U146G", "polymerase ribozyme fitness (log ratio)": "≤ -4.2"}
{"variant": "U6G U134C", "polymerase ribozyme fitness (log ratio)": -0.128}
{"variant": "C8U G46C C51U U77C C85U G92C G117U A120G", "polymerase ribozyme fitness (log ratio)": "≤ -4.2"}
{"variant": "U7C U55A C63U G88U A107U U145A", "polymerase ribozyme fitness (log ratio)": "≤ -4.2"}
{"variant": "U7C A40U C87A", "polymerase ribozyme fitness (log ratio)": "≤ -4.2"}
{"variant": "U7C U15G G34A A47C G48A A49C U56A C76U A115G C131U", "polymerase ribozyme fitness (log ratio)": "≤ -4.2"}
{"variant": "C8U C27G U56A G80A U134C U144A", "polymerase ribozyme fitness (log ratio)": "≤ -4.2"}
{"variant": "C8A G68A A73G C85U G126A", "polymerase ribozyme fitness (log ratio)": "≤ -4.2"}
{"variant": "U6G C14A A17C C32U C93A A98G", "polymerase ribozyme fitness (log ratio)": "≤ -4.2"}
{"variant": "U7A A17U A22C U33C A49C U77G G100A A121G U127C", "polymerase ribozyme fitness (log ratio)": "≤ -4.2"}
{"variant": "U7G A17U C36G U55A C79A C103A", "polymerase ribozyme fitness (log ratio)": "≤ -4.2"}
{"variant": "C8U A21U G42A C54G A89U C96U G112U U144A", "polymerase ribozyme fitness (log ratio)": "≤ -4.2"}
{"variant": "U7G G50C U56G G94C", "polymerase ribozyme fitness (log ratio)": "≤ -4.2"}
{"variant": "U7C A17G A119U", "polymerase ribozyme fitness (log ratio)": -3.03}
{"variant": "C8A G94C C95U", "polymerase ribozyme fitness (log ratio)": "≤ -4.2"}
{"variant": "U7G A47G C85U G140C", "polymerase ribozyme fitness (log ratio)": "≤ -4.2"}
{"variant": "C8U A17U C93U C99U U109G U135C", "polymerase ribozyme fitness (log ratio)": "≤ -4.2"}
{"variant": "C8A A37U A40C C51G C76U G84U", "polymerase ribozyme fitness (log ratio)": "≤ -4.2"}
{"variant": "U6G A122C", "polymerase ribozyme fitness (log ratio)": -0.304}
{"variant": "C8A A16U A17U A26U G80C C87U U139G U151A", "polymerase ribozyme fitness (log ratio)": "≤ -4.2"}
{"variant": "U7G C32U U55A G83A C116U A119G C123G U135G", "polymerase ribozyme fitness (log ratio)": "≤ -4.2"}
{"variant": "U7G A21C G58U U61A G62A A89C C103A C108A G143A", "polymerase ribozyme fitness (log ratio)": "≤ -4.2"}
{"variant": "U7G A23C A28U C38G A121G", "polymerase ribozyme fitness (log ratio)": "≤ -4.2"}
{"variant": "U7A A60G C85U U144C", "polymerase ribozyme fitness (log ratio)": -3.61}
{"variant": "C8U C38U A49G C79G C93A C103G G136U", "polymerase ribozyme fitness (log ratio)": "≤ -4.2"}
